Assay [1] has as its system Colletotrichum orbiculare. Particulars: 250 ppm spray, 2.5 ml/pot; investigated 6 to 10 days after inoculation.
Assay [2] has as its system Phytophthora infestans. In kind it is in vivo. The settings on record: class of control value, Table 7.
Assay [3] relates to Magnaporthe grisea. It is filed as in vivo. The settings on record: class of control value, Table 7.

The results in this text go back to US11178870B2 (priority 2017, dated 2021).

For `COc1ccc(-c2c(-n3cc(F)cn3)cc(Br)c(=O)n2CC(F)F)c(Br)c1` [Compound 450], the “Test H control value (anthracnose on cucumber)” value (“Test H control value” below) in assay [1] is reported as “H (H shows the control value more than 50%)”.

`CN(C)n1c(-c2c(F)cccc2F)c(-c2ccsc2Cl)cc(Br)c1=O` [Compound 455]: in assay [2], the “Test F control value (late blight on tomato)” value (“Test F control value” for short) was “L (L shows the control value of 50% or less)”. For the same molecule, the “Test A control value (blast on rice)” value in assay [3] was “L (L shows the control value of 50% or less)”. Besides, the “Test H control value” value in assay [1] is “L (L shows the control value of 50% or less)”.

As to `Cc1cnn(-c2cc(Br)c(=O)n(C)c2-c2ccc(F)cc2C)c1` [Compound 513], the “Test F control value” value in assay [2] is given as “L (L shows the control value of 50% or less)”. In addition, the “Test A control value (blast on rice)” value in assay [3] was “L (L shows the control value of 50% or less)”. For the same molecule, the “Test H control value” value in assay [1] is recorded as “L (L shows the control value of 50% or less)”.

As to `Cc1cnn(-c2ccc(=O)n(C)c2-c2ccc(F)cc2C)c1` [Compound 511], the “Test F control value” value in assay [2] is on record as “L (L shows the control value of 50% or less)”. Besides, in assay [3], the “Test A control value (blast on rice)” value is “L (L shows the control value of 50% or less)”. Also, the “Test H control value” value in assay [1] is on record as “L (L shows the control value of 50% or less)”.
